Results taken from paper PMC4336329 (PLoS ONE, 2015).
Screen size: about 310,000 compounds; about 14,000 (4.5%) showed an effect of 50% or more. Effects have a minus sign here. This is one part of the list.

target: human ether-à-go-go-related gene (hERG) potassium channel (human, UniProt Q12809); experiment: primary screen, population patch clamp on CHO cells stably expressing hERG
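Further: peak tail current of the secondary pulse compared with the same well before compound.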

human ether-à-go-go-related gene (hERG) potassium channel, sequence (Q12809 whole entry, looked up): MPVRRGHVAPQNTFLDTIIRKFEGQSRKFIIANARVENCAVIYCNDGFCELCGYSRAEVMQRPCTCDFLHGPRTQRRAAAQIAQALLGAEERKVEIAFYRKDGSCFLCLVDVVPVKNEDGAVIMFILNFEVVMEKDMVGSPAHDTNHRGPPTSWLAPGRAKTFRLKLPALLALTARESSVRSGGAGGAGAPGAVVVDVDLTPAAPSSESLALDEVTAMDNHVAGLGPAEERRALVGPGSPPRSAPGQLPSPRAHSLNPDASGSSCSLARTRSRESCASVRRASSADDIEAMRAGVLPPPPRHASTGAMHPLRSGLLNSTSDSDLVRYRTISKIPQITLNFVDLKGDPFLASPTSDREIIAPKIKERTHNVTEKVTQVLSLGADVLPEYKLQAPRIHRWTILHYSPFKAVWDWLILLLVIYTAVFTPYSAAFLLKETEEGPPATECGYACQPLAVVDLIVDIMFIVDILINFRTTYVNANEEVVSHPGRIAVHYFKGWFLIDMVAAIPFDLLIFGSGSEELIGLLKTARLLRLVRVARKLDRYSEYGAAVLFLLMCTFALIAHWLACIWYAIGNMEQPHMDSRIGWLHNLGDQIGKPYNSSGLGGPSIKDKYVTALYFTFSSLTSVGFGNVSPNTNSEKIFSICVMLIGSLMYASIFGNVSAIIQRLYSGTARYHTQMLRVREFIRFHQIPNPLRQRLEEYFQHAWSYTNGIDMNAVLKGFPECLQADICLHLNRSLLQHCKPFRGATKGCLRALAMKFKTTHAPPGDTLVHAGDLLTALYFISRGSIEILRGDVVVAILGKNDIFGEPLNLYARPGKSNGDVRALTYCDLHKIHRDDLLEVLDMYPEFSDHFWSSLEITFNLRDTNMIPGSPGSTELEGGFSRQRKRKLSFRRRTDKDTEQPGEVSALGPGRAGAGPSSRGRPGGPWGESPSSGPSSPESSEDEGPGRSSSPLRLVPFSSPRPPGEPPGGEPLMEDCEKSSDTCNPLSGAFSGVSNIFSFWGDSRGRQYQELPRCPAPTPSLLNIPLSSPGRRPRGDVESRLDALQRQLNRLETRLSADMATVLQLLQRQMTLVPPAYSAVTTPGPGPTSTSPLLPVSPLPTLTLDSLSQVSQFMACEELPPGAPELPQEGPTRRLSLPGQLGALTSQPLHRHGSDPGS

Structure (SMILES) | hERG current change (%, negative = inhibition) at 10uM [%]
Cc1ccccc1C(=O)NCC(=O)OCCOc1ccc(C(C)C)c(C)c1 | -19.3
N#CCCn1cc(C(=O)N2CCOCC2)c(-c2ccc3c(c2)OCCO3)n1 | 7.33
CCCCCCCC(O)CC(CC1CCCCC1)C(=O)NN (stereo not drawn) | -5.64
Cc1cc(NS(=O)(=O)c2ccc(NC(=O)C(c3ccccc3)c3ccccc3)cc2)no1 | 0.966
Cn1cc(-c2nc3ccccc3[nH]2)c2ccccc21 | -31.4
O=c1nc2scc(-c3ccccc3)n2c2ccccc12 | 14.2
CC(NC(=O)Cc1ccc(S(=O)(=O)N2CCCCC2)cc1)c1ccccc1 (stereo not drawn) | -8.73
CCN(CC)C(=O)Cn1cc(C(=O)C(=O)N(CC)C2CCCCC2)c2ccccc21 | -4.07
Cc1ccc(C)c(NC(=O)c2nnn(Cc3ccccc3)c2N)c1 | -6.11
Cc1cc(=O)[nH]c(N/N=C/c2cccc(Br)c2)n1 | -16.7
Cc1[nH]c(=O)[nH]c(=O)c1S(=O)(=O)NCCOC12CC3CC(CC(C3)C1)C2 | 4.6
CC(=O)N1CCc2cc(S(=O)(=O)NCCC(=O)N3CCN(c4ccccn4)CC3)ccc21 | -20.1
O=C(c1cccc(NS(=O)(=O)c2cccc(C(F)(F)F)c2)c1)N1CCOCC1 | 5.74
CC(C)C12CN3CC(C(C)C)(CN(C1)C3c1ccc([N+](=O)[O-])o1)C2=O (stereo not drawn) | -24.9
CCCCCOC(=O)C1=C(C)NC(=O)NC1c1ccccc1 (stereo not drawn) | 5.18
CCN(CC)C(=O)N1CCc2ccccc21 | 0.177
O=C(CNC(=O)c1ccc([N+](=O)[O-])cc1)N/N=C\c1ccc(OC(=O)c2ccccc2)cc1 | 8.23
CCOC(=O)CN1C(=O)S/C(=C/c2ccc(OCc3ccc(C(=O)O)cc3)cc2)C1=O | 23.1
COC(=O)Nc1sc2nc(C)cc(C)c2c1-n1cccc1 | -20.5

Structure (SMILES) | hERG current change (%, negative = inhibition) at 10uM [%]
CCOc1ccccc1NC(=O)C(C)SCc1ccccc1 (stereo not drawn) | 10.9
CCCCc1nnc(NC(=O)CCc2ccccc2)s1 | 19.3
C=CCn1c(CNS(=O)(=O)c2ccc(Br)cc2)n[nH]c1=S | 14.9
O=C1OCC2=C1C(c1ccc(Cl)cc1)CC(=O)N2c1ccc(F)cc1 (stereo not drawn) | -17.9
COc1cc(OC)cc(C(=O)NC(C(=O)NNC(=O)c2cc(Cl)ccc2OC)C(C)C)c1 (stereo not drawn) | 2.89
CCOC(=O)C1=C(O)/C(=C\c2cc(C)n(-c3ccc(F)cc3)c2C)N=C1C | 7.21
CC(C)(C)NC(=O)NC12CC3CC(CC(C3)C1)C2 | 21.3
C=CCn1c(Cc2c[nH]c3ccccc23)nnc1SCC(=O)NCc1ccccc1 | -12.9
COCCN1C(=O)N[C@@H](c2ccccc2)[C@H](C(=O)OC)[C@H]1C | 13.7
COCCOc1ccc(C(F)(F)F)cc1NC(=O)c1ccccc1 | -10.9
CC(C)C(C)NC(=O)COC(=O)C1CCN(S(=O)(=O)c2ccc3c(c2)OCCO3)CC1 (stereo not drawn) | -5.52
COC(=O)C(Cc1ccccc1)NC(=O)CSc1nc(N)cc(=O)[nH]1 (stereo not drawn) | 22.9
Nc1nc(NCCOCCO)nc(NCc2ccccc2)c1[N+](=O)[O-] | -1.49
c1csc(C2=Nn3c(nnc3-c3ccncc3)SC2)c1 | -13.5
CN1CCC(=NNC(=O)C(=O)Nc2ccc(F)cc2)CC1 | 12.8
Cc1cc(C)n(S(=O)(=O)c2ccc(C(C)(C)C)cc2)n1 | -16.1
Cc1ccc(NCC(=O)N/N=C/c2ccc(OC(=O)c3ccco3)cc2)cc1 | 1.76
COc1ccc(N2CCN(CCNS(=O)(=O)c3ccc(C)cc3)CC2)cc1 | -13.5
CC(=O)NCCc1nc2ccccc2[nH]1 | -0.964

Structure (SMILES) | hERG current change (%, negative = inhibition) at 10uM [%]
COc1ccc(CC(=O)N(C)Cc2ccc(Cl)cc2)cc1S(=O)(=O)N1CCOCC1 | -31.1
CCCCc1cc(=O)oc2cc(C)cc(OC(C)C(=O)NCc3ccccn3)c12 (stereo not drawn) | -4.28
COc1cccc(OC)c1OCC(O)CN1CCN(c2ccc(F)cc2)CC1.Cl (stereo not drawn) | -74.9
Cc1cccc(Oc2ncc(-c3ccc(Cl)cc3)cn2)c1C | 6.01
Cc1ccc(CCNC(=O)C2CCN(S(=O)(=O)c3ccc4nc5c(c(C(=O)O)c4c3)CCCC5)CC2)cc1 | 1.85
COCCSc1nnc(NC(=O)CSc2ccccc2)s1 | 2.04
CC1(C)CC(=O)C=C(Nc2ccc(F)c(Cl)c2)C1 | -0.34
COC(=O)c1sccc1NC(=O)CSCCc1ccncc1 | -23.4
O=C(NCCO)C(=O)Nc1cc2c3c(c1)CCN3C(=O)CC2 | 15
CN(C(=O)CSc1nc(-c2ccccc2)c(-c2ccccc2)o1)C1CCS(=O)(=O)C1 (stereo not drawn) | -36.5
CCC(=O)Nc1cccc(NC(=O)c2ccc3c(c2)OCCO3)c1 | 2.17
Cc1c(NC(=S)NC(=O)c2ccc(Cl)cc2)c(=O)n(-c2ccccc2)n1C | -17.2
C/C(=N/N=C/c1ccccc1O)c1ccccc1O | 23.6
Cc1ccc(S(=O)(=O)CCc2nc3ccccc3s2)cc1C | -8.3
N#CCCN(C(=O)COC(=O)CCC(=O)c1ccc(F)cc1)c1ccccc1 | -21.9
CCN(CC)S(=O)(=O)c1cccc(NC(=O)COC(=O)/C=C/c2ccco2)c1 | -36.2
O=C1CN(c2nc(-c3ccccc3)c3ccccc3n2)c2ccccc2N1 | 14.5
CCc1ccc(N2CC(C(=O)Nc3ccc(F)cc3)CC2=O)cc1 (stereo not drawn) | 25.1
CC(C)/C=C/C(=O)N1CCC(N2CCC(C(=O)NCc3ccccn3)CC2)CC1 | 11.2
